{
  "source": "the supplement of paper PMC11417369",
  "note": "This is one part of the list.",
  "data": [
    {"system": "PfSIP2 AP2 domain 1 (GST-tagged)", "assay": "gcPBM binding intensity (ln(normalized median fluorescence intensity)); higher = stronger DNA binding", "outline": "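An Agilent 4 × 180k array carrying primer-extended double-stranded 36-bp intergenic genomic probes and negative controls received GST-tagged P. falciparum DNA-binding domains expressed in E. coli, about 25 μg on average, for 1 h. The binding buffer contained 1× PBS, 1% milk, 0.2 mg/ml BSA, 0.5% salmon testes DNA and 0.03% Triton X-100. Binding intensity is the top Masliner-normalised natural-log median intensity across replicate spots of either probe orientation, read after Alexa488 anti-GST antibody staining and a 488 nm scan.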", "values": [
      {"sequence": "TAAAAAAATAAAATTACACACATATATAGATATATA [CACACA_site7273]", "gcPBM binding intensity (ln)": 6.66},
      {"sequence": "TAAACAAAAAGGAAGAGTACTTGTAAAATTTGTAAA [XGTACX_site3003]", "gcPBM binding intensity (ln)": 6.93},
      {"sequence": "ACAAAAAAAAATATGTTAACTATATATATATATATA [CACACA_negctrl_site346]", "gcPBM binding intensity (ln)": 9.39},
      {"sequence": "AATTGGGAACTGTAATGTACATATATTGAAAGTATA [XGTACX_site7081]", "gcPBM binding intensity (ln)": 7.13},
      {"sequence": "TATTTATTTGTACATATACACACTTAAATATGTTTA [CACACA_site3902]", "gcPBM binding intensity (ln)": 7.06},
      {"sequence": "TTATATTTCTTGAAGGGTACATACCATTATTTTTAA [XGTACX_site1159]", "gcPBM binding intensity (ln)": 7.03},
      {"sequence": "ATATATTTATATATTACACACAATATTGGAGACATA [CACACA_site931]", "gcPBM binding intensity (ln)": 6.98},
      {"sequence": "AGAAAACTCGCTTTTCTAAATCTCAAAAAAAAAAAA [XGTACX_negctrl_site94]", "gcPBM binding intensity (ln)": 6.91},
      {"sequence": "ATACATATATTAGGATGTACGTTTATTTTAGTTATT [XGTACX_site7169]", "gcPBM binding intensity (ln)": 7.2},
      {"sequence": "CATATCTCAATTTATGCATGCAGGATTTTTCTAATA [TGCATGCA_site516]", "gcPBM binding intensity (ln)": 6.98},
      {"sequence": "TTTTTTTTTTTTTGGTGTACATTTATAAAAAAAAAA [XGTACX_site8368]", "gcPBM binding intensity (ln)": 7.45},
      {"sequence": "AATATGTACAGACATACACACATATATATATATATA [CACACA_site1222]", "gcPBM binding intensity (ln)": 9.61},
      {"sequence": "ACACAAAAAAAAAAAAAAAAAAAAAAAAAAAAGGAA [CACACA_negctrl_site1162]", "gcPBM binding intensity (ln)": 6.88},
      {"sequence": "ACATATAAGATTATGTGTCCACAAAAAAATAAAACA [XGTACX_site2867]", "gcPBM binding intensity (ln)": 7.1},
      {"sequence": "TTTTTAATAACACTTTTGAAAAATAAAATAAAATAA [CACACA_negctrl_site821]", "gcPBM binding intensity (ln)": 6.99},
      {"sequence": "TTTTTTTATTATTCTTATATAAAAATTTTTTTTAAT [CACACA_negctrl_site159]", "gcPBM binding intensity (ln)": 6.73},
      {"sequence": "TTTTATGTTCTTAATGCACACTTATAAGTATCTTAT [CACACA_site4895]", "gcPBM binding intensity (ln)": 7.53},
      {"sequence": "TTATTCTTTTAATATACACACTTTGTCTTTTCGCGC [CACACA_site5525]", "gcPBM binding intensity (ln)": 6.8},
      {"sequence": "ATATATATAAAAGAAACAACATTTATTCAAAAGGTA [CACACA_negctrl_site749]", "gcPBM binding intensity (ln)": 7.25},
      {"sequence": "TTTTAAATTTAGTGTAGTACACTTTTTTCAAATATA [XGTACX_site4659]", "gcPBM binding intensity (ln)": 7.02},
      {"sequence": "TACTTTTATAAAAATTTTATCAAATTCTATATATGT [TGCATGCA_negctrl_site308]", "gcPBM binding intensity (ln)": 6.96},
      {"sequence": "ATATTATCATTTTTTTTAATGGAAAAAAAAAAAAAA [CACACA_negctrl_site1298]", "gcPBM binding intensity (ln)": 6.87},
      {"sequence": "ATATAATTCAAATACAGTACATATACAATATATACA [XGTACX_site1191]", "gcPBM binding intensity (ln)": 7.01},
      {"sequence": "AATAACAAAATAGGCACACGCACATATATATATATA [CACACA_site1497]", "gcPBM binding intensity (ln)": 9.49},
      {"sequence": "TATTTTTCTTTTTAAAAATATATCACATGAACATTA [XGTACX_negctrl_site183]", "gcPBM binding intensity (ln)": 6.67},
      {"sequence": "TACATATTTATATACACACACACACGGATATTTATA [CACACA_site7239]", "gcPBM binding intensity (ln)": 7.1},
      {"sequence": "GCACCCTGTATGAATGCACACATTCATAGAATTGCT [CACACA_site5475]", "gcPBM binding intensity (ln)": 8.46},
      {"sequence": "ATTCAAAAGATGTATACACACATGTGGATAATATAA [CACACA_site2443]", "gcPBM binding intensity (ln)": 6.9},
      {"sequence": "TGATCAAATAAGTTTGCATGTCAACAATGCATATAT [TGCATGCA_site1025]", "gcPBM binding intensity (ln)": 7.19},
      {"sequence": "GAATTCCTTTGTGTATGTACATAATGATATTATTTT [XGTACX_site7369]", "gcPBM binding intensity (ln)": 6.98},
      {"sequence": "CCCCTTGTGGATTCTACACACAAAAAGTCGTCAAAA [CACACA_site821]", "gcPBM binding intensity (ln)": 7.12},
      {"sequence": "TAATTTTTTAAACACACACACATATATATATATATA [CACACA_site4230]", "gcPBM binding intensity (ln)": 9.45},
      {"sequence": "TTTTTTTTTTTTGGTAGTACATAATATTAATATAAT [XGTACX_site4422]", "gcPBM binding intensity (ln)": 7.01},
      {"sequence": "TATATTTTCCTGCAAACACACATATAAATGGGTAGA [CACACA_site4451]", "gcPBM binding intensity (ln)": 7.08},
      {"sequence": "ATATATATATATATGGTGCATGAAAATTTACTTTGA", "gcPBM binding intensity (ln)": 9.74},
      {"sequence": "ATATACTCATTTAATACACACAAAGAGAAAATTAAT [CACACA_site1923]", "gcPBM binding intensity (ln)": 6.89},
      {"sequence": "GATATTTGTTCATATACACACTTTTGATAAAATATG [CACACA_site4807]", "gcPBM binding intensity (ln)": 7.01},
      {"sequence": "ATAGTACAACAGGTTCTTGACAAACAATATGAATGT [GTGCAC_negctrl_site442]", "gcPBM binding intensity (ln)": 7},
      {"sequence": "TTTATATAATTTTTTTGTACATATATATGAATACAT [XGTACX_site2316]", "gcPBM binding intensity (ln)": 7.11},
      {"sequence": "TAATTTTTTTTTTTTTTTCATTCTTTTCCTTTGATT [CACACA_negctrl_site1365]", "gcPBM binding intensity (ln)": 6.47},
      {"sequence": "TACTAACATAAAGACACACACCACATAAAATAAATA [CACACA_site7663]", "gcPBM binding intensity (ln)": 7.2},
      {"sequence": "CTTATTTTGTTATAAGTGCATTTTTTAAAATTTCTT", "gcPBM binding intensity (ln)": 9.64},
      {"sequence": "ATAGTATACAGACACACACACACACCGATATATATA [CACACA_site8511]", "gcPBM binding intensity (ln)": 7.43},
      {"sequence": "GGAAGAAAACTTAGGTGTACATATAAAACGATATAA [XGTACX_site3118]", "gcPBM binding intensity (ln)": 7.13}
    ]}
  ]
}
